Substitutions are numbered along the chain they refer to. Numbers in names are those of the source.
B1: 56E5VH3VL3 (antibody, human IgG1, kappa)
heavy chain: QVQLQESGPGLVKPSQTLSLTCTVSGGSITSDYWNWIRQHPGNKLEYMGYISYTGSTYYNPSLKSRVTITVDTSKNQFSLKLSSVTTADTAVYYCARYRDWDVRAMDYWGQGTTVTVSSASTKGPSVFPLAPSSKSTSGGTAALGCLVKDYFPEPVTVSWNSGALTSGVHTFPAVLQSSGLYSLSSVVTVPSSSLGTQTYICNVNHKPSNTKVDKKV[human IgG1 Fc with changes not spelt out]
light chain: DIVMTQSPDSLAVSLGEKVTMNCKSSQSLLISGNQKNFLTWYQQKPGQPPKLLIYWASTRESGVPDRFSGSGSGTDFTLTISSLQAEDVAVYYCQNDFGFPFTFGQGTKVEIKRTVAAPSVFIFPPSDEQLKSGTASVVCLLNNFYPREAKVQWKVDNALQSGNSQESVTEQDSKDSTYSLSSTLTLSKADYEKHKVYACEVTHQGLSSPVTKSFNRGEC
notes: humanized 56E5 antibody
B2: 56E5VH2VL2 (antibody, human IgG1, kappa)
heavy chain: QVQLQESGPGLVKPSQTLSLTCTVSGGSITSDYWNWIRQHPGKGLEYMGYISYTGSTYYNPSLKSRVTITVDTSKNQFSLKLSSVTTADTAVYYCARYRDWDVRAMDYWGQGTTVTVSSASTKGPSVFPLAPSSKSTSGGTAALGCLVKDYFPEPVTVSWNSGALTSGVHTFPAVLQSSGLYSLSSVVTVPSSSLGTQTYICNVNHKPSNTKVDKKV[human IgG1 Fc with changes not spelt out]
light chain: B1 light chain with K18R, V19A
notes: humanized 56E5 antibody
B3: 56E5VH2VL3 (antibody, human IgG1, kappa)
heavy chain: QVQLQESGPGLVKPSQTLSLTCTVSGGSITSDYWNWIRQHPGKGLEYMGYISYTGSTYYNPSLKSRVTITVDTSKNQFSLKLSSVTTADTAVYYCARYRDWDVRAMDYWGQGTTVTVSSASTKGPSVFPLAPSSKSTSGGTAALGCLVKDYFPEPVTVSWNSGALTSGVHTFPAVLQSSGLYSLSSVVTVPSSSLGTQTYICNVNHKPSNTKVDKKV[human IgG1 Fc with changes not spelt out]
light chain: B1 light chain
notes: humanized 56E5 antibody
B4: 56E5VH3VL2 (antibody, human IgG1, kappa)
heavy chain: QVQLQESGPGLVKPSQTLSLTCTVSGGSITSDYWNWIRQHPGNKLEYMGYISYTGSTYYNPSLKSRVTITVDTSKNQFSLKLSSVTTADTAVYYCARYRDWDVRAMDYWGQGTTVTVSSASTKGPSVFPLAPSSKSTSGGTAALGCLVKDYFPEPVTVSWNSGALTSGVHTFPAVLQSSGLYSLSSVVTVPSSSLGTQTYICNVNHKPSNTKVDKKV[human IgG1 Fc with changes not spelt out]
light chain: B1 light chain with K18R, V19A
notes: humanized 56E5 antibody
B5: 56E5VH4VL2 (antibody, human IgG1, kappa)
heavy chain: QVQLQESGPGLVKPSQTLSLTCTVSGGSITSDYWNWIRQHPGNKLEYMGYISYTGSTYYNPSLKSRVTITRDTSKNQFSLKLSSVTTADTAVYYCARYRDWDVRAMDYWGQGTTVTVSSASTKGPSVFPLAPSSKSTSGGTAALGCLVKDYFPEPVTVSWNSGALTSGVHTFPAVLQSSGLYSLSSVVTVPSSSLGTQTYICNVNHKPSNTKVDKKV[human IgG1 Fc with changes not spelt out]
light chain: B1 light chain with K18R, V19A
notes: humanized 56E5 antibody
B6: 56E5VH4VL3 (antibody, human IgG1, kappa)
heavy chain: QVQLQESGPGLVKPSQTLSLTCTVSGGSITSDYWNWIRQHPGNKLEYMGYISYTGSTYYNPSLKSRVTITRDTSKNQFSLKLSSVTTADTAVYYCARYRDWDVRAMDYWGQGTTVTVSSASTKGPSVFPLAPSSKSTSGGTAALGCLVKDYFPEPVTVSWNSGALTSGVHTFPAVLQSSGLYSLSSVVTVPSSSLGTQTYICNVNHKPSNTKVDKKV[human IgG1 Fc with changes not spelt out]
light chain: B1 light chain
notes: humanized 56E5 antibody
B7: 56E5VH5VL2 (antibody, human IgG1, kappa)
heavy chain: QVQLQESGPGLVKPSQTLSLTCTVSGGSITSDYWNWIRQHPGNKLEYMGYISYTGSTYYNPSLKSRISITRDTSKNQFSLKLSSVTTADTAVYYCARYRDWDVRAMDYWGQGTTVTVSSASTKGPSVFPLAPSSKSTSGGTAALGCLVKDYFPEPVTVSWNSGALTSGVHTFPAVLQSSGLYSLSSVVTVPSSSLGTQTYICNVNHKPSNTKVDKKV[human IgG1 Fc with changes not spelt out]
light chain: B1 light chain with K18R, V19A
notes: humanized 56E5 antibody
B8: humanized antibody 56E5-VH5VL3 (antibody, human IgG1, kappa)
heavy: QVQLQESGPGLVKPSQTLSLTCTVSGGSITSDYWNWIRQHPGNKLEYMGYISYTGSTYYNPSLKSRISITRDTSKNQFSLKLSSVTTADTAVYYCARYRDWDVRAMDYWGQGTTVTVSSASTKGPSVFPLAPSSKSTSGGTAALGCLVKDYFPEPVTVSWNSGALTSGVHTFPAVLQSSGLYSLSSVVTVPSSSLGTQTYICNVNHKPSNTKVDKKV[human IgG1 Fc with changes not spelt out]
light: B1 light chain
notes: Human IgG1(N297A)/kappa

Experiments:
[1] = molecular target: T1, monkey PD-L1 expressed on HEK293A cells (monkey (cynomolgus), UniProt Q9NZQ7 (human entry)); test: FACS on HEK293A/monkey PD-L1 cells, serially diluted antibody (protocol of Example 4)
T1 construct: Full-length cDNA expressed stably; also called HEK293A/monkey PD-L1 cells; HEK293A/monkey PD-L1

[2] = molecular target: T2, human PD-L1 (ECD)-his (human, UniProt Q9NZQ7 part only); test: SPR (BIAcore 8K), human PD-L1 (ECD)-his coupled to CM5 chip, antibody injected, 1:1 Langmuir model
T2 construct: Bought protein; it is not tied to the bought construct by a sentence of its own; also called recombinant human PD-L1(ECD)-his; Cat #:10084-H08H, Sino Biological; not shown: His tag
Experimental: (§1) These antibodies were also tested in SPR assays for their binding affinities to human and monkey PD-L1 with BIAcore™ 8K instrument (GE Life Sciences). Briefly, 100-200 response units (RU) of human PD-L1 (ECD)-his protein (Cat #:10084-H08H, Sino Biological, CN) or monkey PD-L1 (ECD)-his protein (Cat #:90251-008H, Sino Biological, CN) were coupled to CM5 biosensor chips (Cat #:BR-1005-30, GE Life Sciences, US), and the un-reacted groups were blocked with 1M ethanolamine Serially diluted antibodies at concentrations ranging from 0.3 μM to 10 μM were injected into the SPR running buffer (HBS-EP buffer, pH7.4, Cat #:BR-1006-69, GE Life Sciences, US) at 30 μL/minute. The binding affinities were calculated with the RUs of blank controls subtracted. The association rate (kₐ) and dissociation rate (kd) were calculated using the one-to-one Langmuir binding model (BIA Evaluation Software, GE Life Sciences), and the equilibrium dissociation constant KD was calculated as the kd/kₐ ratio.

[3] = molecular target: T3, monkey PD-L1 (ECD)-his (monkey, UniProt Q9NZQ7 part only (human entry)); test: SPR (BIAcore 8K), monkey PD-L1 (ECD)-his coupled to CM5 chip, antibody injected, 1:1 Langmuir model
T3 construct: Bought protein; also called Cat #:90251-C08H, Sino Biological; not shown: His tag
Experimental: as §1

Chain of monkey PD-L1 (ECD)-his (Q9NZQ7 other isoform, or with tags, fused parts or gaps): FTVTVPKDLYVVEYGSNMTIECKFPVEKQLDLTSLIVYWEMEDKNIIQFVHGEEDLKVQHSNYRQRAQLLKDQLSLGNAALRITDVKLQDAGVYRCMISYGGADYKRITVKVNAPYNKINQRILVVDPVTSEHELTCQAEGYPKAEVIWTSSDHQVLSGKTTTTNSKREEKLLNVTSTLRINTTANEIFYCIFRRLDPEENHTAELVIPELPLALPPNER
Chain of human PD-L1 (ECD)-his (Q9NZQ7 19-238): as the sequence (Q9NZQ7 other isoform, or with tags, fused parts or gaps) above, with T33A, S34A, N62S, Q68R, R82Q, L173F, A185T, I192T, L215H counted along it

Binder	binding result [1]	Kd [2] [nM]	Kd [3] [nM]
B1	binds	–	–
B2	binds	–	–
B3	binds	–	–
B4	binds	–	–
B5	binds	–	–
B6	binds	–	–
B7	binds	–	–
B8	binds	0.0308	0.441

— patent US20220298244A1 (BEIJING MABWORKS BIOTECH, published 2022)
